Experimental data from PubChem BioAssay AID686979 (National Center for Advancing Translational Sciences (NCATS), 2013).
Out of some 420,000 compounds screened, about 50,000 (12%) were called active. The shares of active, inactive and inconclusive entries below differ from those in the screen. The call rests on the fitted dose curve; in most records, active means well fitted inhibition curve with a large enough effect; inconclusive means small, poorly fitted or top-dose-only effect; inactive means flat fitted curve, though single readings scatter. Potencies of inconclusive entries are left out as doubtful fits.

assay: qHTS for Inhibitors of human tyrosyl-DNA phosphodiesterase 1 (TDP1): qHTS in cells in presence of CPT; conditions: chicken DT40 Tdp1-/-;hTDP1 cells + 20 nM CPT, ATP luminescence, 48 h; activity change, negative = growth inhibition: at 46.2 µM (top of the series) unless noted; further: nearly all actives have a fitted effect of over 55% in size
Outline: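 Chicken DT40 Tdp1-/- cells complemented with human TDP1, 400 cells/well, exposed to compounds plus 20 nM camptothecin for at least 48 h at 37 C; viability read as ATP content by CellTiter-Glo luminescence.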
On the % scale 0 is the no-effect control and ±100 the full control effect; potency means the concentration at half of the fitted maximal effect; tags describe the fitted curve by direction and shape.

Row | SMILES | Potency | activity change, negative = growth inhibition
1 | COc1cc(NC(=O)c2cc3c(s2)-c2ccccc2OC3)cc(OC)c1OC | active: 16.4 µM | –
2 | O=C(CCn1c(=O)oc2ccc(Cl)cc21)N1CCN(Cc2ccccc2)CC1 | – | inactive: -28.6%
3 | CCC/C=C/c1ccc(CN2C(C)C(=O)N(Cc3cn(CCC4OCCO4)nn3)CCS2(=O)=O)cc1 (configuration not stated) | inconclusive [inhibitor, single point] | –
4 | Cc1ccc2nc(-c3ccc(O)cc3)c(Nc3ccc(Cl)cc3)n2c1 | inconclusive [inhibitor, single point] | –
5 | COc1ccc(C(=O)/C=C/Nc2cccc(C)n2)cc1OC | inconclusive [inhibitor, single point] | –
6 | CCC(=O)N1CCc2cc(S(=O)(=O)NCCC(=O)Nc3cc(C)ccc3OC)ccc21 | – | inactive: -9.09%
7 | CCOCCOC(=O)COc1ccc2c(-c3ccccc3)cc(=O)oc2c1 | – | inactive: -6.85%
8 | Clc1ccc(-c2csc3ncnc(N4CCc5ccccc5C4)c23)cc1 | inconclusive [inhibitor, single point] | –
9 | CCOc1ccc(NC(=O)CSC2=C(C#N)C(c3ccc4c(c3)OCO4)CC(=O)N2)cc1 (configuration not stated) | – | inactive: -25.8%
10 | COc1ccccc1NC(=O)Cn1c(=O)n(CCC(=O)NCC2CCCO2)c(=O)c2cc(OC)c(OC)cc21 (configuration not stated) | – | inactive: 9.42%
11 | Cc1ccc(C(C)(C)NC(=O)C2CCC(=O)N(Cc3ccccc3F)C2)cc1 (configuration not stated) | inconclusive [inhibitor, single point] | –
12 | CCOC(=O)c1ccc(Nc2ccc(-c3ccc(OC)c(OC)c3)nn2)cc1 | inconclusive [inhibitor, partial curve] | –
13 | OCCNCc1cc(Br)ccc1OCc1ccc(F)cc1 | inconclusive [inhibitor, single point] | –
14 | COc1cc(C=C2C(=O)OC(c3ccccc3)OC2=O)cc(Br)c1O (configuration not stated) | inconclusive [inhibitor, single point] | –
15 | CC(=O)c1cccc(Nc2nc(-c3cccc(C)c3)nc3ccccc23)c1 | active: 20.6 µM | –
16 | Nc1ncnc2sc3c(c12)CCNC3 | – | inactive: -12.6%
17 | CC1(C)CC2CC(C)(CN2C(=O)COC(=O)c2cccc([N+](=O)[O-])c2)C1 (configuration not stated) | inconclusive [inhibitor, single point] | –
18 | COc1ccc(COC(=O)CCS(=O)(=O)c2ccc(C)cc2)cc1 | – | inactive: 3.01%
19 | COc1ccc(CCNC(=O)C2CC(O)CN2S(=O)(=O)c2ccc(Cl)cc2)cc1OC (configuration not stated) | inconclusive [inhibitor, partial curve] | –
20 | COCCOC(=O)C1=C(C)N=C2SCCC(=O)N2C1/C=C/c1ccccc1 (configuration not stated) | active: 18.4 µM | –
21 | CC(O)(c1cccc(F)c1)c1nc(-c2cccc(C(F)(F)F)c2)cs1 (configuration not stated) | active: 29.1 µM | –
22 | C/C=C(\C)C(=O)O[C@H]1CC(C)=C2C(=O)C=C(C)C2[C@@H]2OC(=O)[C@@](C)(OC(=O)C=C(C)C)C21 (some centres not stated) | – | inactive: -19.3% [at 9.04 µM]
23 | CCCCCCCCCCCCCCC(O)C[N+](C)(CCO)CCO (configuration not stated) | active: 2.31 µM | –
24 | O=S(=O)(c1ccccc1)N1CCN(Cc2cc3c(cc2Br)OCCO3)CC1 | inconclusive [inhibitor, single point] | –

Row | SMILES | Potency | activity change, negative = growth inhibition
25 | Cc1ccc2nc(-c3ccccc3)cc(C(=O)N3CCN(S(=O)(=O)c4c(C)noc4C)CC3)c2c1 | inconclusive [inhibitor, single point] | –
26 | CC1(C(=O)NS(=O)(=O)Cc2cccc(Cl)c2)CCN1C(=O)CCc1cccs1 (configuration not stated) | – | inactive: -1.54%
27 | CCc1ccccc1OCC(=O)Nc1cccc(S(=O)(=O)NCc2ccco2)c1 | active: 18.4 µM | –
28 | COc1ccc(C)cc1NC(=O)CN(C)S(=O)(=O)c1ccc2c(c1)n(C)c(=O)c(=O)n2C | – | inactive: -8.72%
29 | Clc1ccccc1N/N=C/c1ccc2c(c1)OCO2 | – | inactive: 6.71%
30 | Cc1ccc(CCNC(=O)c2c[nH]c3ccc(S(=O)(=O)Nc4ccc(C)cc4C)cc3c2=O)cc1 | inconclusive [inhibitor, single point] | –
31 | Cc1c(C(=O)N2c3ccccc3CC2C)oc2ccccc12 (configuration not stated) | inconclusive [inhibitor, partial curve, poor fit] | –
32 | O=C(NCCNCc1cccc(Cl)c1)c1ccco1 | – | inactive: 8.41%
33 | Cc1ccc(C(=O)N/C(=C\c2cn(S(=O)(=O)N(C)C)c3ccccc23)C(=O)NCCN2CCOCC2)cc1 | inconclusive [inhibitor, single point] | –
34 | Cc1ccc(NC(=O)CSc2ccc(-c3ccco3)nn2)c(C)c1 | inconclusive [inhibitor, partial curve] | –
35 | O=C(c1ccc(O)c(Br)c1)c1cc(Br)ccc1O | inconclusive [inhibitor, partial curve] | –
36 | Cc1ccc(C)c(S(=O)(=O)c2nnn3c2nc(Nc2ccc(C)c(C)c2)c2ccccc23)c1 | – | inactive: -1.39%
37 | N#Cc1ccc(S(=O)(=O)NCCc2ccncc2)cc1 | inconclusive [inhibitor, single point] | –
38 | Cc1cc(C(=O)N/N=C/c2c(CO)cnc(C)c2O)c2ccccc2n1 | inconclusive [inhibitor, single point] | –
39 | COCCCNC(=O)c1ccc2c(=O)n(CC3CCCO3)c(=S)[nH]c2c1 (configuration not stated) | – | inactive: -15.2%
40 | CC(C)C(C)NC(=O)COc1ccc(Sc2ccc(OCC(=O)NC(C)C(C)C)cc2)cc1 (configuration not stated) | active: 11.6 µM | –
41 | COC(=O)c1cc2oc(C)cc2n1CC(=O)N1CCCc2ccccc21 | inconclusive [inhibitor, single point] | –
42 | COc1cccc(C(=O)NCC(c2ccc(N(C)C)cc2)N2CCc3ccccc32)c1 (configuration not stated) | active: 8.2 µM | –
43 | CCOC(=O)C1CCCN(C(=O)c2ccc(OC)c([N+](=O)[O-])c2)C1 (configuration not stated) | – | inactive: -9.01%
44 | COc1ccc(CC2(CO)CCN(Cc3ccc4c(c3)CCO4)CC2)cc1 | – | inactive: -13.2%
45 | Cc1cnc(-n2ncc(C(=O)NCCc3ccncc3)c2-c2cccs2)nc1-c1ccc(F)cc1 | inconclusive [inhibitor, single point] | –
46 | COc1cccc(NC(=O)CCN2CCN(c3ccccc3)CC2)c1 | inconclusive [inhibitor, single point] | –
47 | CN(C)N=Nc1nc2c(c(=O)n(C)c(=O)n2C)n1CC1CO1 (configuration not stated) | active: 3.66 µM | –
48 | N/C(=N\C(=S)Nc1ccc2c(c1)OCO2)c1ccccc1 | inconclusive [inhibitor, single point] | –

Row | SMILES | Potency | activity change, negative = growth inhibition
49 | COc1ccccc1-n1cn[nH]c1=S | active: 29.1 µM | –
50 | CCc1cccc(OCC(=O)Nc2cc(S(=O)(=O)N3CCOCC3)ccc2N2CCCC2)c1 | inconclusive [inhibitor, single point] | –
51 | CSc1ccc(CN2CCC2(C)C(=O)NCc2cccc(C(F)(F)F)c2)cc1 (configuration not stated) | inconclusive [inhibitor, single point] | –
52 | CCC(C)C(NC(=O)OCc1ccccc1)C(=O)OCN1C(=O)c2ccccc2C1=O (configuration not stated) | inconclusive [inhibitor, single point] | –
53 | CCOC(=O)N(C)S(=O)(=O)c1ccccc1[N+](=O)[O-] | – | inactive: -17.7%
54 | Cc1ccc(NC(=O)CCCCCN2C(=O)[C@@H]3Cc4ccccc4CN3C2=O)c(Cl)c1 | inconclusive [inhibitor, single point] | –
55 | Cc1nn(C)cc1N1C(=O)c2cccc3c(N)ccc(c23)C1=O | – | inactive: 2.78%
56 | CCc1ncn(CCc2ccccc2OC)c1C(C)C | active: 3.66 µM | –
57 | O=C(CCNS(=O)(=O)c1cccs1)N1CCN(c2cccc(Cl)c2)CC1 | inconclusive [inhibitor, single point] | –
58 | Cc1ccc(S(=O)(=O)N2C[C@H]3C(=O)C[C@@H](c4ccccc4)N(S(C)(=O)=O)[C@H]3C[C@H]2c2ccccc2)cc1 | inconclusive [inhibitor, single point] | –
59 | COCc1ccc(CN2CCC(Oc3ccc(C(=O)NCc4ccccn4)cc3)CC2)o1 | inconclusive [inhibitor, full curve, poor fit] | –
60 | COCC(C)n1c(C)cc(C(=O)COC(=O)c2c(C)nn(-c3ccccc3)c2C)c1C (configuration not stated) | inconclusive [inhibitor, single point] | –
61 | O=C(O)c1ccc(N/N=C/c2ccc(-c3ccc(Br)cc3)o2)cc1 | inconclusive [inhibitor, single point] | –
62 | O=C(COC(=O)c1ccc(F)cc1F)Nc1ccc(S(=O)(=O)N2CCOCC2)cc1 | – | inactive: -5.83%
63 | Cc1c(Cl)cccc1NC(=S)NCC1COc2ccccc2O1 (configuration not stated) | – | inactive: -21.9%
64 | CCN(CC(=O)Nc1ccc(NC(C)=O)cc1)C(=O)/C=C/c1ccc(S(=O)(=O)N2CCCCCC2)cc1 | inconclusive [inhibitor, single point] | –
65 | CCCNc1nc2c(c(=O)[nH]c(=O)n2C)n1Cc1cccc(Br)c1 | inconclusive [inhibitor, single point] | –
66 | COCCn1nnnc1C(c1cccs1)N1CCN(c2nc3ccccc3s2)CC1 (configuration not stated) | inconclusive [inhibitor, single point] | –
67 | Cc1nn(Cc2noc(C(=O)NC3CCC(C)CC3)n2)c(C)c1Br (configuration not stated) | inconclusive [inhibitor, single point] | –
68 | O=C(CSc1nc2ccccc2o1)Nc1nncs1 | – | inactive: -2.31%
69 | O=C1OCCC1=COCCOC=C1CCOC1=O | – | inactive: 9.84%
70 | COc1ccccc1N1CCN(S(=O)(=O)c2ccc(Cl)cc2)CC1 | inconclusive [inhibitor, single point] | –
71 | O=C(Nc1ccncc1)c1ccc2ncsc2c1 | inconclusive [inhibitor, partial curve] | –
72 | Cc1cc(C)c(S(=O)(=O)N2C[C@H]3CON(C)[C@H]3C[C@H]2c2ccc(N3CCCCC3)cc2)c(C)c1 | inconclusive [inhibitor, single point] | –
